Reference: article PMC7659723
These are yes or no findings as the source states them, for the method shown. For some of these results: Binding seen in cells or lysates may run through a third protein. Some binding calls cover weakened binding; strength is not graded here. For some of these results: Sequences can lack the tags named with a protein. One block for each binder: values may come before it.

Legend:
[1] = biological target: T1, Pex3 cytosolic domain (40–441), yeast two-hybrid bait (S. cerevisiae) (UniProt P28795); test: two-hybrid; genome-wide yeast two-hybrid screen with the Pex3 cytosolic domain (40–441) as bait
T1 sequence: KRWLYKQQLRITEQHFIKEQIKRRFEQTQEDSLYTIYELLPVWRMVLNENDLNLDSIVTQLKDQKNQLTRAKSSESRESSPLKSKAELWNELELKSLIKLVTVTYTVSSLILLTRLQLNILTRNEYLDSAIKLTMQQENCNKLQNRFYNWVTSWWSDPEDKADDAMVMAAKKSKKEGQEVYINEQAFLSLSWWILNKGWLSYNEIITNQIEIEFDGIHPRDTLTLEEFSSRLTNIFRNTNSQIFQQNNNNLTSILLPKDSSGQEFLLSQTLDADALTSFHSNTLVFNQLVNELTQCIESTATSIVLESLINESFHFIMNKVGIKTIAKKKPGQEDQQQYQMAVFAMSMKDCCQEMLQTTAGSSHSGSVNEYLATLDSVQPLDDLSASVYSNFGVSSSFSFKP

MBP-Inp1 (S. cerevisiae) = biological target: T2, MBP-Inp1 (S. cerevisiae) (UniProt Q03694); test: pull-down; competition: total lysates with His-Pex3 and MBP-Inp1 mixed and preincubated 30 min at 4°C; binding read from the loss of His-Pex3 on GST-Pex19 beads
T2 sequence: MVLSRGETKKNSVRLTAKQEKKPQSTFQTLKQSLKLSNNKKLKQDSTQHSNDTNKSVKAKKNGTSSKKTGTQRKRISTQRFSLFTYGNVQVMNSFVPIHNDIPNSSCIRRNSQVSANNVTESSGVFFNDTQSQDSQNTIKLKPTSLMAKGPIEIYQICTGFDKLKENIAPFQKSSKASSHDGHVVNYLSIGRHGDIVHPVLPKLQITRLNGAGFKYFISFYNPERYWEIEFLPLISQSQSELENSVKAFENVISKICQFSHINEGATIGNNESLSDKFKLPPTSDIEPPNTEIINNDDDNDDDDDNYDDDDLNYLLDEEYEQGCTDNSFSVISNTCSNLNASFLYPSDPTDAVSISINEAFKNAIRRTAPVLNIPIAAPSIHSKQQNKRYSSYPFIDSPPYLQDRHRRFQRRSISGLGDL

[2] = biological target: T3, MBP-Inp1 C (281–420) (S. cerevisiae) (UniProt Q03694); test: pull-down; unbound fraction of the competition assay (mixed lysates of His-Pex3 and MBP-Inp1 C) incubated 1 h at 4°C with amylose beads; eluted with 10 mM maltose buffer; Coomassie staining and anti-His Western blot
T3 sequence: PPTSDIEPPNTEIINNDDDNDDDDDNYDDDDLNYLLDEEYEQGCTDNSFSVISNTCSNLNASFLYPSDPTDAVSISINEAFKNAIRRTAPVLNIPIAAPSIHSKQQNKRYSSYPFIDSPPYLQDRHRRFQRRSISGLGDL

GST-Inp1 (S. cerevisiae) = biological target: T4, GST-Inp1 (S. cerevisiae) (UniProt Q03694); test: pull-down; GST-Inp1 and mutants bound to glutathione Sepharose, incubated 2 h at 4°C with lysate of E. coli expressing His-Pex3; washes in PBS + 0.05% Igepal CA-630, one with 500 mM KCl; SDS-PAGE, Coomassie staining; only the target purified
T4 sequence: T2 sequence

[3] = biological target: T3, MBP-Inp1 C (281–420) (S. cerevisiae); test: pull-down; MBP-Inp1 N or C bound to amylose beads, incubated 2 h at 4°C with total lysate of E. coli expressing His-Pex3 (40–441); washes in PBS + 0.05% Igepal CA-630, one with 500 mM KCl; SDS-PAGE, Coomassie staining and Western blotting; only the target purified
[4] = biological target: T5, MBP-Inp1 N (1–280) (S. cerevisiae) (UniProt Q03694); test: as above
T5 sequence: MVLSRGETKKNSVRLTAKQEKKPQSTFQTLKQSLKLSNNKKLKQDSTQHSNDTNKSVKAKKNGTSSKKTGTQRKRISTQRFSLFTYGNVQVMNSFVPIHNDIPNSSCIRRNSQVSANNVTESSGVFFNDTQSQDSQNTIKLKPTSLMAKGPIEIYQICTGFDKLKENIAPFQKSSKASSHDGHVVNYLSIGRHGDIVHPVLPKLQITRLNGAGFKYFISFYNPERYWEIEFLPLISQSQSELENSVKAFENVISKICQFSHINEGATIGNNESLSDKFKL

[5] = biological target: T6, GST-Pex19 (S. cerevisiae) (UniProt Q07418); test: pull-down; competition: GST-Pex19 immobilised on glutathione Sepharose beads; His-Pex3 lysate premixed 30 min at 4°C with buffer, MBP, MBP-Inp1, MBP-Inp1 N or MBP-Inp1 C lysate, then 2 h at 4°C on the beads; washes incl. 0.5 M KCl; Coomassie staining; only the target purified
T6 sequence: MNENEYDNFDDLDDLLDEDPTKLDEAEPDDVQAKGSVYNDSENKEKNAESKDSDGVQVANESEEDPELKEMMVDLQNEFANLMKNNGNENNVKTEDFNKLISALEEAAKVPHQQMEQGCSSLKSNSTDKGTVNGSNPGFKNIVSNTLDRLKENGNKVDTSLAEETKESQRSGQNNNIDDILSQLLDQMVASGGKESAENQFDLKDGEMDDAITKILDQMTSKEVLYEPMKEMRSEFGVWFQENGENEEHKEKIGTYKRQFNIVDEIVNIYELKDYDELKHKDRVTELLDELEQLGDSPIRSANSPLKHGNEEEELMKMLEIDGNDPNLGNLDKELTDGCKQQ

binding [1]: binds
B1: Inp1 fragment 300–378 (smallest yeast two-hybrid hit) (domain or fragment, UniProt Q03694 300-378)
chain: NDDDDDNYDDDDLNYLLDEEYEQGCTDNSFSVISNTCSNLNASFLYPSDPTDAVSISINEAFKNAIRRTAPVLNIPIAA

binding (MBP-Inp1 (S. cerevisiae)): binds
binding [2]: binds
binding (GST-Inp1 (S. cerevisiae)): binds
binding [3]: binds
binding [4]: no binding
binding [5]: binds
B2: His-Pex3 (40–441) (domain or fragment, UniProt P28795 40-441)
chain: T1 sequence
